Measured values from patent US11457629B2, “Heteroarylphenylaminoquinolines and analogues” (Bayer Aktiengesellschaft, priority 2017, dated 2022).

Method in brief: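 Reversed-phase HPLC under acidic conditions (0.1% formic acid), following EEC directive 79/831 Annex V.A8. Log P was derived from retention time by linear interpolation between straight-chain alkan-2-ones (C3–C16) of known Log P. Where several values arose within one method, all are listed, joined by "+".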

| Structure (SMILES) | Log P |
| --- | --- |
| Cc1nc2c(F)c(F)ccc2cc1Nc1cccc(F)c1-c1ccnn1C(C)(C)C [Example I-323] | 4.32 ^[a] |
| CCCn1nccc1-c1c(F)cccc1Nc1cc2ccc(F)c(F)c2nc1C [Example I-324] | 3.76 ^[a] |
| Cc1nc2c(F)c(F)ccc2cc1Nc1ccc(F)cc1-c1ccnn1CC(C)C [Example I-325] | 3.99 ^[a] |
| Cc1nc2c(F)c(F)ccc2cc1Nc1ccc(F)cc1-c1ccnn1Cc1ccccc1 [Example I-326] | 3.99 ^[a] |
| Cc1nc2c(F)c(F)ccc2cc1Cc1ccccc1-c1ccnn1C(C)C [Example I-327] | 3.76 ^[a] |
| CCn1nccc1-c1c(F)c(F)cc(F)c1Nc1nc2ccccc2nc1C [Example I-328] | 2.84 ^[a] |
| CCn1nccc1-c1c(F)ccc(F)c1Nc1nc2ccccc2nc1C(F)F [Example I-329] | 3.31 ^[a] |
| Cc1nc2c(F)c(F)ccc2cc1Cc1cccc(Cl)c1-c1ccnn1C [Example I-330] | 3.31 ^[a] |
| CCn1nccc1-c1c(F)cccc1Cc1cc2ccc(F)c(F)c2nc1C [Example I-331] | 3.35 ^[a] |
| Cc1nc2c(F)c(F)ccc2cc1Cc1cccc(F)c1-c1ccnn1C [Example I-332] | 3.06 ^[a] |
| CCn1nccc1-c1cc(F)ccc1Cc1cc2ccc(F)c(F)c2nc1C [Example I-333] | 3.46 ^[a] |
| CCn1nccc1-c1c(Cl)cccc1Cc1cc2ccc(F)c(F)c2nc1C [Example I-334] | 3.65 ^[a] |
| Cc1nc2c(F)c(F)ccc2cc1Cc1ccc(F)cc1-c1ccnn1C [Example I-335] | 3.15 ^[a] |
| CCn1nccc1-c1ccccc1Cc1cnc2c(C(F)(F)F)cccc2c1 [Example I-336] | 3.79 ^[a] |
| Cn1nccc1-c1ccccc1Cc1cnc2c(C(F)(F)F)cccc2c1 [Example I-337] | 3.48 ^[a] |
| Clc1cccc2cc(Cc3ccccc3-c3ccnn3Cc3ccccc3)cnc12 [Example I-338] | 4.08 ^[a] |
| CCn1nccc1-c1ccccc1Cc1nc2ccc(F)c(F)c2nc1C [Example I-339] | 3.31 ^[a] |
| Cn1nccc1-c1ccccc1Cc1cnc2c(Cl)cccc2c1 [Example I-340] | 2.94 ^[a] |
| Clc1cccc2cc(Cc3ccccc3-c3ccnn3Cc3ccccc3)cnc12 [Example I-341] | 3.63 ^[a] |

| Structure (SMILES) | Log P |
| --- | --- |
| Cc1nc2c(F)c(F)ccc2nc1Cc1ccccc1-c1ccnn1Cc1ccccc1 [Example I-342] | 4.15 ^[a] |
| CCn1nccc1-c1ccccc1Cc1cnc2c(F)c(F)ccc2c1 [Example I-343] | 3.11 ^[a] |
| Cc1nc2c(F)c(F)ccc2nc1Cc1ccccc1-c1ccnn1C [Example I-344] | 2.96 ^[a] |
| Cc1nc2c(F)c(F)ccc2nc1Cc1ccccc1-c1ccnn1C(C)C [Example I-345] | 3.76 ^[a] |
| CCn1nccc1-c1ccccc1Cc1cnc2c(Cl)cccc2c1 [Example I-346] | 3.25 ^[a] |
| Cc1nc2ccccc2cc1Cc1ccccc1-c1ccnn1C(C)C [Example I-347] | 1.73 ^[a] |
| Cc1nc2ccccc2cc1Cc1ccccc1-c1ccnn1C [Example I-348] | 1.36 ^[a] |
| CCn1nccc1-c1ccccc1Cc1cc2ccccc2nc1C [Example I-349] | 1.53 ^[a] |
| Cc1nc2c(F)c(F)ccc2cc1Cc1ccc(Cl)cc1-c1ccnn1C [Example I-350] | 3.55 ^[a] |
| CCn1nccc1-c1cc(Cl)ccc1Cc1cc2ccc(F)c(F)c2nc1C [Example I-351] | 3.87 ^[a] |
| CC(C)n1nccc1-c1ccccc1Cc1cnc2c(F)cccc2c1 [Example I-352] | 3.19 ^[a] |
| Cn1nccc1-c1ccccc1Cc1cnc2c(F)cccc2c1 [Example I-353] | 2.57 ^[a] |
| CCn1nccc1-c1ccccc1Cc1cnc2c(F)cccc2c1 [Example I-354] | 2.86 ^[a] |
| Cn1nccc1-c1ccccc1Cc1cnc2c(F)c(F)ccc2c1 [Example I-355] | 2.84 ^[a] |
| CC(C)n1nccc1-c1ccccc1Cc1cnc2ccccc2n1 [Example I-356] | 3.06 ^[a] |
| Cn1nccc1-c1ccccc1Cc1cnc2ccccc2n1 [Example I-357] | 2.34 ^[a] |
| CCn1nccc1-c1ccccc1Cc1cnc2ccccc2n1 [Example I-358] | 2.64 ^[a] |
| Fc1cccc2cc(Cc3ccccc3-c3ccnn3Cc3ccccc3)cnc12 [Example I-359] | 3.65 ^[a] |
| Cn1nccc1-c1ccccc1C(F)(F)c1cnc2c(F)cccc2c1 [Example I-360] | 2.90 ^[a] |
